Measured values from the supplement of paper PMC3334620.
Over roughly 33,000 sequences, “E-score (-0.5 to 0.5)” has its median near -0.053; the highest 2% begin near 0.37. The list shows a part of the results.

target: Hap1 (UniProt P0CE41); test: PBM E-score (8-mer binding enrichment) (E-score (-0.5 to 0.5)); higher = stronger / more preferred TF binding; most listed sequences are background and not binding sites; settings: protein concentration: 200 nM; construct: GST-DNA-binding domain
Description: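 Universal 'all 10-mer' protein binding microarrays (Agilent AMADID 015681) probed with GST-tagged S. cerevisiae TFs (full-length or DBD) made by in vitro transcription/translation (PURExpress), about 100-200 nM. Bound TF was detected with fluorescent anti-GST. Each ungapped 8-mer (which stands for itself and its reverse complement) is scored by the PBM enrichment score (E-score), a modified Wilcoxon-Mann-Whitney statistic from -0.5 to +0.5, computed with the Universal PBM Analysis Suite. Scale: above 0.35 generally sequence-specific binding.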

Sequence of UniProt P0CE41 (P0CE41 whole entry, the tested form may be a part): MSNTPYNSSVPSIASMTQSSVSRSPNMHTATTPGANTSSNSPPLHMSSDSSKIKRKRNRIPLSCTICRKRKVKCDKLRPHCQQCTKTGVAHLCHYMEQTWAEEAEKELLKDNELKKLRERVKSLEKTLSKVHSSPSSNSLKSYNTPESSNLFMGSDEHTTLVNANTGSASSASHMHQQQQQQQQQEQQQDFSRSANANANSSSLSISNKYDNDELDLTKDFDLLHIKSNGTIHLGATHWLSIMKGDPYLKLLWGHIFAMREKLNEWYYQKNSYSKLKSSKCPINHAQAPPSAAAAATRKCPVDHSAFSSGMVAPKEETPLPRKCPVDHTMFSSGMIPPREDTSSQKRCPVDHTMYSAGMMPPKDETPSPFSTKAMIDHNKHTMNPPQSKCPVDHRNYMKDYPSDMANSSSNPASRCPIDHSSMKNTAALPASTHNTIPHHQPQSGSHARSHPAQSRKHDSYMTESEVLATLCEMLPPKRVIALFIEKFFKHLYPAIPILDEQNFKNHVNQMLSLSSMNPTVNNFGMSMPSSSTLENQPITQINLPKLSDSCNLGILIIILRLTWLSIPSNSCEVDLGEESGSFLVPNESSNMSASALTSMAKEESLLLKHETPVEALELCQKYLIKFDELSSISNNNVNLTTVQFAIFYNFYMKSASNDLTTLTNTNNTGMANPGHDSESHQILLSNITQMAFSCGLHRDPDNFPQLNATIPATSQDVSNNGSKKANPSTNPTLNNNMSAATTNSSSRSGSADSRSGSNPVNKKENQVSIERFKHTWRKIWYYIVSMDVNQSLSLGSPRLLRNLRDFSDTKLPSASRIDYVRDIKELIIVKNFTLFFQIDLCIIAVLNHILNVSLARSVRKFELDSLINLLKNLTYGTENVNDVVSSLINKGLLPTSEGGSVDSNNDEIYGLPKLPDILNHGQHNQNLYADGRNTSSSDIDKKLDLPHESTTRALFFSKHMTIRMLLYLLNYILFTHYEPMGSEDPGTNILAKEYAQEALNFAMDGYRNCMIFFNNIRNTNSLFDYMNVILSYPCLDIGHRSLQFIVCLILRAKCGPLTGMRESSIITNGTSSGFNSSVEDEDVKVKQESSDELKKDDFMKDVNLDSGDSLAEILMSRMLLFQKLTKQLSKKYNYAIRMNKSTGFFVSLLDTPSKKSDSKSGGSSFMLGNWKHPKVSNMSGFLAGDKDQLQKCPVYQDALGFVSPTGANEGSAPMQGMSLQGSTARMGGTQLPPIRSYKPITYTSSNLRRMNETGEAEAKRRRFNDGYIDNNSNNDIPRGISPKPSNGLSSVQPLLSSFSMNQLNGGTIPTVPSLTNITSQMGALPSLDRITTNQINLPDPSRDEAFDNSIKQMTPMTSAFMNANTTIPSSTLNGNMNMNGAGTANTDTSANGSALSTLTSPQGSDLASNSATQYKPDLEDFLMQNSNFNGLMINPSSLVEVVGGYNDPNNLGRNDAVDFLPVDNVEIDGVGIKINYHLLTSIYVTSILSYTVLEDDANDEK

Row | Sequence | PBM E-score
1 | ACGATCTA | -0.34
2 | ACTCAAGC | -0.0986
3 | GATCGCAC | -0.0615
4 | GAAGAGTC | -0.168
5 | CCCTGATA | -0.156
6 | ATGTTAAA | -0.0832
7 | CATTGCCC | -0.111
8 | ACGGATGG | 0.165
9 | ACGAGGGC | 0.0421
10 | GCCTCATA | -0.184
11 | AGGGCGAG | -0.175
12 | AGTAATCC | 0.0848
13 | AAAGGCTC | -0.0504
14 | ACCTCTTA | 0.175
15 | TCTCACAA | -0.0963
16 | CTGATTCA | -0.232
17 | CAGTTGGA | -0.199
18 | ATCAAAAC | 0.0206
19 | CGTCGATA | 0.137
20 | GACTATCA | -0.147
21 | ATCAGACC | 0.0524
22 | GATGTAGC | 0.0109
23 | GGAAGTCC | 0.122
24 | ATCGCAAC | -0.135
25 | AATGAGCT | -0.0653

Row | Sequence | PBM E-score
26 | AATATGCA | 0.0149
27 | TCGTCTCA | -0.14
28 | GCATTCGA | 0.0247
29 | CCCCCGCG | 0.159
30 | CAGCAAAA | -0.247
31 | CTCTTACC | 0.153
32 | CACCAACG | -0.0214
33 | AAAGCTAC | -0.13
34 | CTCCTCTA | -0.246
35 | GACGGAAA | 0.314
36 | CTTGCCCA | -0.18
37 | AGTCAGTG | -0.235
38 | AGGAAACC | 0.0632
39 | ACACGGGG | 0.13
40 | AGCAGCCT | -0.25
41 | AAATTTCG | 0.161
42 | CCGTAAAA | 0.262
43 | GGGTAAAA | 0.0311
44 | ATTGGCCC | -0.0569
45 | CCGCGGAC | 0.383
46 | ATACTACA | 0.003
47 | AACTTAAA | -0.186
48 | CACCAGCG | -0.13
49 | AATGAGAG | -0.144
50 | AACACTGT | -0.205

Row | Sequence | PBM E-score
51 | AACGTTTC | -0.19
52 | CAGTAAAG | -0.185
53 | GGACGACA | 0.0773
54 | GGTAGTGA | -0.0893
55 | CGCAGAAA | -0.0644
56 | AAGGCCTG | -0.191
57 | AGCGAATG | -0.157
58 | ACCATACG | -0.149
59 | AGCGGGGC | 0.108
60 | GGTTTACA | -0.0158
61 | AAACATGC | -0.123
62 | AGTAACGC | -0.0724
63 | ATTAGCTG | -0.12
64 | ATCCAAAA | -0.0459
65 | GCTTCAGA | -0.107
66 | CCATAAGA | -0.0726
67 | GAACTAGC | 0.0324
68 | CTCATGAG | -0.228
69 | CAGAAACG | -0.074
70 | GCGTCACC | -0.0889
71 | CTGAAATA | -0.104
72 | AACCTTCC | 0.0161
73 | ATCGAAAA | -0.0311
74 | AAAGTTTA | 0.0987
75 | TAATTACA | -0.0885

Row | Sequence | PBM E-score
76 | CGGGCGCA | 0.221
77 | GATGAAAC | 0.0604
78 | GAAGTACC | 0.158
79 | GTCTCGCA | -0.267
80 | GAAATAGA | -0.0205
81 | GGCCCCCC | 0.0493
82 | CAGTCGTA | 0.012
83 | ACATAGGC | -0.0315
84 | CTTCTACC | -0.0795
85 | CCGATGTA | 0.287
86 | ATAGCCAC | -0.0645
87 | TATAGAAA | -0.199
88 | AAAGTACC | -0.129
89 | CCTCCGCG | 0.198
90 | AGACCGTC | 0.0627
91 | GTTCGCAA | -0.0201
92 | AATATCAG | -0.0864
93 | ACTATAGT | -0.0199
94 | CTGCGGGC | 0.215
95 | CTGCGGCC | 0.203
96 | CTTAAAAC | 0.0669
97 | CATTAAAG | -0.212
98 | CGCCGGCG | 0.422
99 | CGCTAGAC | -0.137
100 | AATCGGGT | 0.286

Row | Sequence | PBM E-score
101 | ACAACACC | -0.133
102 | AAAATGAG | -0.207
103 | CACAGGGG | -0.347
104 | CACTGTGC | -0.00691
105 | AATGACGG | 0.167
106 | TGCGAACA | -0.0771
107 | GGGGAAGA | -0.148
108 | ATCGCTAG | -0.00216
109 | ACCATCCC | 0.0956
110 | CTTCCCTA | -0.131
111 | ACTCCAAA | -0.255
112 | AGTTGCCA | -0.163
113 | CCTGTCGA | -0.198
114 | CTGGTAAC | -0.0808
115 | AGCCGCTG | 0.0301
116 | ACCCGTGA | 0.0171
117 | CACCTTCA | -0.0777
118 | CTGCTAAC | -0.13
119 | ACCACACC | 0.119
120 | AAGGAGGT | -0.00559
121 | GGGACCCC | -0.0966
122 | CTCCTCGC | -0.202
123 | AGCCGCTC | 0.161
124 | ATATGCGG | 0.136
125 | CAAGTACC | 0.0674

Row | Sequence | PBM E-score
126 | AGCGCCAT | -0.113
127 | ACGGAGTG | 0.242
128 | AGATCCCT | -0.163
129 | AACTCTAG | -0.336
130 | AGGTCGGC | 0.263
131 | AGTATTTC | 0.116
132 | GATTCTCC | 0.104
133 | ATGACCGG | 0.276
134 | TATGTGGA | -0.0574
135 | CCCCTGAC | -0.0366
136 | AAACTCGT | -0.144
137 | CCCTTCAA | -0.134
138 | ACTCGAGC | -0.0948
139 | TAGGAGAA | -0.341
140 | AAATCGGT | 0.246
141 | AAACTGAG | -0.18
142 | AACGATCA | -0.183
143 | CAGTTAGC | -0.15
144 | GTGGCCGA | 0.263
145 | GTGGATTA | -0.0512
146 | AGCAGGAC | -0.0234
147 | CACTCAGA | -0.156
148 | GCACCCAC | -0.0345
149 | AATCTGGG | -0.175
150 | ATAAGCGG | 0.118

Row | Sequence | PBM E-score
151 | AAGGGGAA | -0.239
152 | AGCTAGGA | -0.253
153 | AACAGACT | -0.15
154 | ACTAGGAT | -0.125
155 | CCCGTACC | 0.155
156 | AAGACAGT | 0.01
157 | AGTAGAAG | -0.263
158 | ACAGGGGC | -0.163
159 | CAGTGGTA | -0.222
160 | CCCCGAAC | 0.291
161 | GTGGTTTA | 0.0602
162 | CAGAGCGA | 0.0204
163 | AGGGGCGA | -0.0313
164 | TTATTCAA | -0.08
165 | CCTCGCAA | -0.159
166 | ACATCTAA | -0.117
167 | GCGCGCCA | 0.0961
168 | AACCCTCG | -0.0146
169 | AGTCAAAT | -0.31
170 | ATGATAGG | -0.126
171 | AGGGTCCA | 0.059
172 | GCATACGC | -0.0271
173 | AGCAGTAA | -0.0328
174 | CGCTTCAC | -0.227
175 | GGGGAACA | 0.0352

Row | Sequence | PBM E-score
176 | ATACCCGA | 0.398
177 | AGAGTAGG | -0.0868
178 | ACTCTTGC | -0.101
179 | CGACCCAA | -0.023
180 | GAATTGTC | -0.0245
181 | ATCTGAGG | -0.16
182 | CTCCCGCC | 0.137
183 | AGCAGAGG | -0.325
184 | ACGTTCTC | -0.142
185 | CAGTTACG | -0.117
186 | TCCAGAAA | -0.23
187 | ATGCTATC | -0.00371
188 | CTAAGTGA | 0.0523
189 | ACTGTGAA | -0.234
190 | CAAGGCGA | -0.16
191 | CACTTGCA | -0.255
192 | GGTGAGAA | 0.0984
193 | ACTCGATC | -0.0127
194 | AGGAAACG | -0.124
195 | CCCGTAAC | 0.149
196 | TGAGGCAA | -0.183
197 | ACTCTATG | -0.063
198 | ACGGTCAG | -0.109
199 | CTCCGGAG | 0.467
200 | ACATTGAG | -0.0854

Row | Sequence | PBM E-score
201 | GACTTAGA | -0.278
202 | CACCCTTC | 0.0613
203 | TTACATAA | -0.113
204 | TCCGCGGA | 0.342
205 | CAACAAAA | -0.215
206 | AAACGCCC | 0.263
207 | ATGCATCA | -0.0887
208 | CACAACTC | -0.108
209 | CAAACAAG | 0.0314
210 | GCATCTCA | -0.259
211 | ATACAAGG | 0.00348
212 | GCAGCGCA | -0.198
213 | CTTTATCA | -0.226
214 | ACCGGCAA | 0.272
215 | GACGACAC | -0.0269
216 | CAGATGAA | -0.3
217 | AACAGCCG | 0.149
218 | ACAGCATA | -0.104
219 | AGTTTACC | 0.0378
